# Positions count from the first letter of the chain named.
# T1: human Ang-2 (human, UniProt O15123 19-496, limits assumed)
# T1 construct: Sources differ by assay: R&D Systems 623-AN (mixture of 2 truncated versions) for initial screening; also called hAng-2; huAng-2
# T1 sequence (looked up): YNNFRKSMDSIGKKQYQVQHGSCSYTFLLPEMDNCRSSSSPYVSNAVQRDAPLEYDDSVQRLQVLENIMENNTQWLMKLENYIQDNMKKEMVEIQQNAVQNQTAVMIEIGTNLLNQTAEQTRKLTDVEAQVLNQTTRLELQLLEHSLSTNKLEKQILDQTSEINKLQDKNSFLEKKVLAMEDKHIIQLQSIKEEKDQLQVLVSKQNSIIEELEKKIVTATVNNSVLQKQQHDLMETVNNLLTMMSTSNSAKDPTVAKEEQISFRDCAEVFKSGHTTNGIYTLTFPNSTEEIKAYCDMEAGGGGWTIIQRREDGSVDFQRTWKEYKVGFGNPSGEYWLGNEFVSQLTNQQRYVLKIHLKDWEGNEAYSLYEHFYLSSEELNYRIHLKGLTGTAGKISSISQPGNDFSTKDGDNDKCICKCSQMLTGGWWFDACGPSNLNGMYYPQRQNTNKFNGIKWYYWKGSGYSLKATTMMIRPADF
# B1: Con4-C5 (C) (Fc fusion)
# chain: [human IgG1 Fc not written out]GGGGGAQAATQEECEWDPWTCEHMPRSLE
# B2: AC2-Con4 (C) (Fc fusion)
# chain: [human IgG1 Fc not written out]GGGGGAQFGWSHGCEWDPWTCEHMGSTLE
# B3: AC4-Con4 (C) (Fc fusion)
# chain: [human IgG1 Fc not written out]GGGGGAQVLGGQGCEWDPWTCRLLQGWLE
# B4: Con4-1 (C) (Fc fusion)
# chain: [human IgG1 Fc not written out]GGGGGAQVLGGQGCQWDPWTCSHLEDGLE
# B5: Con4-3 (C) (Fc fusion)
# chain: [human IgG1 Fc not written out]GGGGGAQDKILEECQWDPWTCQFFYGALE
# B6: Con4-4 (C) (Fc fusion)
# chain: [human IgG1 Fc not written out]GGGGGAQWYEQDACEWDPWTCEHMAEVLE
# B7: Con4-8 (C) (Fc fusion)
# chain: [human IgG1 Fc not written out]GGGGGAQSTIGDMCEWDPWTCAHMQVDLE
# B8: Con4-9 (C) (Fc fusion)
# chain: [human IgG1 Fc not written out]GGGGGAQGTSPSFCQWDPWTCSHMVQGLE
# B9: Con4-10 (C) (Fc fusion)
# chain: [human IgG1 Fc not written out]GGGGGAQTQGLHQCEWDPWTCKVLWPSLE
# B10: Con4-11 (C) (Fc fusion)
# chain: [human IgG1 Fc not written out]GGGGGAQQGMKMFCEWDPWTCAHIVYRLE
# B11: Con4-15 (C) (Fc fusion)
# chain: [human IgG1 Fc not written out]GGGGGAQQWSWPPCEWDPWTCQTVWPSLE
# B12: Con4-16 (C) (Fc fusion)
# chain: [human IgG1 Fc not written out]GGGGGAQAVGSQTCEWDPWTCAHLVEVLE
# B13: Con4-17 (C) (Fc fusion)
# chain: [human IgG1 Fc not written out]GGGGGAQGPRISTCQWDPWTCEHMDQLLE
# B14: Con4-18 (C) (Fc fusion)
# chain: [human IgG1 Fc not written out]GGGGGAQWVNEVVCEWDPWTCNHWDTPLE
# B15: Con4-19 (C) (Fc fusion)
# chain: [human IgG1 Fc not written out]GGGGGAQVVQVGMCQWDPWTCKHMRLQLE
# B16: Con4-20 (C) (Fc fusion)
# chain: [human IgG1 Fc not written out]GGGGGAQQVIGRPCEWDPWTCEHLEGLLE
# B17: Con4-21 (C) (Fc fusion)
# chain: [human IgG1 Fc not written out]GGGGGAQTKGKSVCQWDPWTCSHMQSGLE
# B18: Con4-23 (C) (Fc fusion)
# chain: [human IgG1 Fc not written out]GGGGGAQTSQRVGCEWDPWTCQHLTYTLE
# B19: Con4-25 (C) (Fc fusion)
# chain: [human IgG1 Fc not written out]GGGGGAQRAPQEDCEWDPWTCAHMDIKLE
# B20: Con4-27 (C) (Fc fusion)
# chain: [human IgG1 Fc not written out]GGGGGAQTWPQDKCEWDPWTCEHMGSTLE
# B21: Con4-28 (C) (Fc fusion)
# chain: [human IgG1 Fc not written out]GGGGGAQAWGQEGCDWDPWTCEHMLPMLE
# B22: Con4-29 (C) (Fc fusion)
# chain: [human IgG1 Fc not written out]GGGGGAQRTTQEKCEWDPWTCEHMESQLE
# B23: Con4-31 (C) (Fc fusion)
# chain: [human IgG1 Fc not written out]GGGGGAQNRLQEVCEWDPWTCEHMENVLE
# B24: Con4-32 (C) (Fc fusion)
# chain: [human IgG1 Fc not written out]GGGGGAQKSTQDDCDWDPWTCEHMVGPLE
# B25: Con4-33 (C) (Fc fusion)
# chain: [human IgG1 Fc not written out]GGGGGAQPMNQVECDWDPWTCEHMPRSLE
# B26: Con4-34 (C) (Fc fusion)
# chain: [human IgG1 Fc not written out]GGGGGAQVKTQEHCDWDPWTCEHMREWLE
# B27: Con4-35 (C) (Fc fusion)
# chain: [human IgG1 Fc not written out]GGGGGAQVPRQKDCEWDPWTCEHMYVGLE
# B28: Con4-37 (C) (Fc fusion)
# chain: [human IgG1 Fc not written out]GGGGGAQLPGQEDCEWDPWTCEHMVRSLE
# B29: Con4-38 (C) (Fc fusion)
# chain: [human IgG1 Fc not written out]GGGGGAQPRLQEECVWDPWTCEHMPLRLE
# B30: Con4-39 (C) (Fc fusion)
# chain: [human IgG1 Fc not written out]GGGGGAQPVNQEDCEWDPWTCEHMPPMLE
# B31: Con4-41 (C) (Fc fusion)
# chain: [human IgG1 Fc not written out]GGGGGAQNVRQEKCEWDPWTCEHMPVRLE
# B32: Con4-42 (C) (Fc fusion)
# chain: [human IgG1 Fc not written out]GGGGGAQLRHQEGCEWDPWTCEHMFDWLE
# B33: Con4-43 (C) (Fc fusion)
# chain: [human IgG1 Fc not written out]GGGGGAQSISHEECEWDPWTCEHMQVGLE
# B34: Con4-45 (C) (Fc fusion)
# chain: [human IgG1 Fc not written out]GGGGGAQWAQQEECAWDPWTCDHMVGLLE
# B35: Con4-46 (C) (Fc fusion)
# chain: [human IgG1 Fc not written out]GGGGGAQQHWQEECEWDPWTCDHMPSKLE
# B36: Con4-47 (C) (Fc fusion)
# chain: [human IgG1 Fc not written out]GGGGGAQQTSQEDCVWDPWTCDHMVSSLE
# B37: Con4-48 (C) (Fc fusion)
# chain: [human IgG1 Fc not written out]GGGGGAQGHSQEECGWDPWTCEHMGTSLE
# B38: Con4-49 (C) (Fc fusion)
# chain: [human IgG1 Fc not written out]GGGGGAQWAAQEECEWDPWTCEHMGRMLE
# B39: Con4-50 (C) (Fc fusion)
# chain: [human IgG1 Fc not written out]GGGGGAQHGQNMECEWDPWTCEHMFRYLE
# B40: Con4-C1 (C) (Fc fusion)
# chain: [human IgG1 Fc not written out]GGGGGAQTTIGSMCEWDPWTCAHMQGGLE
# B41: Con4-C2 (C) (Fc fusion)
# chain: [human IgG1 Fc not written out]GGGGGAQTTIGSMCQWDPWTCAHMQGGLE
# B42: Con4-C4 (C) (Fc fusion)
# chain: [human IgG1 Fc not written out]GGGGGAQTTIGSMCQWDPWTCEHMQGGLE
# B43: Con4-22 (C) (Fc fusion)
# chain: [human IgG1 Fc not written out]GGGGGAQVWRSQVCQWDPWTCNLGGDWLE
# B44: L1-C1 (N) (Fc fusion)
# chain: MGAQQKFKPLDELEQTLYEQWTLQQRLEGGGGG[human IgG1 Fc not written out]
# B45: AC6-L1 (N) (Fc fusion)
# chain: MGAQTNYKPLDELDATLYEHWILQHSLEGGGGG[human IgG1 Fc not written out]
# B46: L1-1 (N) (Fc fusion)
# chain: B45 chain with T5Q, W21F, L23F, Q24H, H25Y, S26T
# B47: L1-2 (N) (Fc fusion)
# chain: B44 chain with Q5L, K6N, K8T, R26S
# B48: L1-3 (N) (Fc fusion)
# chain: B44 chain with Q5T, K8N, Q25H, R26Q
# B49: L1-4 (N) (Fc fusion)
# chain: B44 chain with Q5V, E12A, Q20H, T22M, L23F, R26A
# Biological target: T1, human Ang-2
# Assay: neutralization ELISA vs Tie-2-Fc
row,Binder,IC50 [nM]
1,B1,0.16
2,B2,0.52
3,B3,1.54
4,B4,2.47
5,B5,282
6,B6,0.12
7,B7,1.2
8,B8,20.1
9,B9,86.6
10,B10,9.7
11,B11,15
12,B12,6.94
13,B13,0.96
14,B14,4.8
15,B15,5.76
16,B16,0.48
17,B17,3.21
18,B18,9.88
19,B19,0.31
20,B20,0.22
21,B21,0.3
22,B22,0.41
23,B23,0.16
24,B24,0.75
25,B25,0.52

row,Binder,IC50 [nM]
1,B26,0.28
2,B27,0.18
3,B28,0.49
4,B29,0.4
5,B30,0.3
6,B31,0.26
7,B32,0.17
8,B33,0.18
9,B34,0.48
10,B35,0.26
11,B36,0.44
12,B37,0.26
13,B38,0.19
14,B39,0.38
15,B40,2.75
16,B41,3.75
17,B42,9.8
18,B43,150
19,B44,0.56
20,B45,0.03
21,B46,0.08
22,B47,0.04
23,B48,0.16
24,B49,0.08
